{"source": "PubChem BioAssay AID652104", "about": "(National Center for Advancing Translational Sciences (NCATS), 2013)", "note": "“And” between values parts separate entries of the source, which are not always exact repeats. Identical values can stand only once. Among all 410,000 compounds or so, about 7,200 (1.8%) were called active. Inconclusive results, whose numbers are uncertain, are shown with a selection of clear calls. Calls follow the shape of the dose curve; as a rule, active = well fitted activation curve with a large enough effect; inconclusive = small, poorly fitted or top-dose-only effect, or another doubt; inactive = no such curve, though single readings can be large or run the other way. Potencies beside an inconclusive call are fits to weak or partial responses and may not hold up. Potency is read from the fitted curve at half-maximal effect; tags tell the direction and shape of the fitted curve."}
{"test": "qHTS of TDP-43 Inhibitors; also: nearly all actives have a fitted effect of over 50% in size; as to growth rescue (activation): % of control where 0% means no effect", "details": "TDP-43 expressing yeast growth rescue, BacTiter-Glo, 24 h; growth rescue (activation): at 46.1 µM (top of the series) unless noted", "in_short": "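Yeast cells expressing TDP-43 under galactose induction are exposed to compounds for 24 hr at 30 deg C. BacTiter-Glo luminescence measures growth, so protective compounds score as activators.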"}
{"compound": "COC(=O)c1c(C)nn(-c2ccc(OC(F)(F)F)cc2)c1-c1snnc1C", "Potency": "inconclusive: 20 µM [activator, single point]"}
{"compound": "O=C(c1ccccc1Cc1ccccc1)N1CCN(S(=O)(=O)c2ccc(F)cc2)CC1", "Potency": "inconclusive: 2.51 µM [activator, full curve, poor fit]"}
{"compound": "O=C(Nc1ccccc1N1CCN(C(=O)c2ccccc2)CC1)c1cccc(Cl)c1", "Potency": "inconclusive: 25.1 µM [activator, single point]"}
{"compound": "Cc1c(C)n(C)c2ccc([N+](=O)[O-])cc12", "Potency": "inconclusive: 3.98 µM [activator, full curve, poor fit]"}
{"compound": "O=C(CSCc1ccc(F)cc1)N1CCN(c2ccccc2F)CC1", "Potency": "inconclusive: 11.2 µM [activator, partial curve]"}
{"compound": "COc1cccc(C(O)c2nc(-c3ccccc3OC)cs2)c1", "note": "(configuration not stated)", "Potency": "active: 22.4 µM"}
{"compound": "COc1ccc(C(C)(O)c2nc(-c3cccc(NC(C)=O)c3)cs2)cc1", "note": "(configuration not stated)", "Potency": "inconclusive: 0.562 µM [activator, full curve]"}
{"compound": "Cc1ccc(C(=O)c2cn(Cc3cccc(Cl)c3)c3nc(C)ccc3c2=O)cc1", "Potency": "inconclusive: 7.08 µM [activator, partial curve, poor fit]"}
{"compound": "CCCCNC(=O)c1nn(C)c2c1CSc1ccccc1-2", "Potency": "active: 35.5 µM"}
{"compound": "COc1ccc(-c2coc3c(C(=O)NCCN4CCOCC4)cccc23)c(C)c1", "Potency": "inconclusive: 6.31 µM [activator, full curve, poor fit]"}
{"compound": "COC(=O)c1ccc(COC(=O)CCNS(=O)(=O)c2ccc(C)c(C)c2)cc1", "Potency": "inconclusive: 14.1 µM [activator, single point]"}
{"compound": "COc1cccc(NC(=O)CSc2nc3ccccc3nc2N2CCCC2)c1", "Potency": "inconclusive: 10 µM [activator, partial curve]"}
{"compound": "C=CCn1c2ccccc2c(=O)c2cc(C#Cc3ccccn3)ccc21", "Potency": "active: 20 µM"}
{"compound": "COc1ccc(-c2sc3ccc(OC)cc3c2-c2ccc(O)cc2)cc1", "growth rescue (activation)": "inactive: -85.2%"}
{"compound": "COc1ccc2nc3c(c(-c4ccccc4)c2c1)CCC3", "Potency": "inconclusive: 10 µM [activator, partial curve]"}
{"compound": "Cc1cc(C)cc(NC(=O)NN2C(C)CCCC2C)c1", "note": "(configuration not stated)", "Potency": "inconclusive: 20 µM [activator, partial curve]"}
{"compound": "CCCCN(CCCC)S(=O)(=O)c1ccc(C(=O)Nc2nnc(CSC)o2)cc1", "growth rescue (activation)": "inactive: 21.1%"}
{"compound": "O=C(c1cccs1)N1C[C@@H](n2cc(-c3ccc(F)cc3)nn2)[C@H](O)C[C@@H]1c1ccc(Cl)cc1", "Potency": "inconclusive: 1.78 µM [activator, partial curve]"}
{"compound": "COc1ccccc1NC(=S)NC(=O)/C=C/c1ccco1", "Potency": "inconclusive: 12.6 µM [activator, single point]"}
{"compound": "COc1ccc(CCC(=O)NCCc2csc(-c3ccc(F)cc3)n2)cc1", "Potency": "inconclusive: 11.2 µM [activator, partial curve]"}
{"compound": "Cc1ccc(S(=O)(=O)N2[C@@H](c3ccc(C(C)C)cc3)C(C(=O)O)=C[C@H]2C(C)(C)C)cc1", "Potency": "inconclusive: 12.6 µM [activator, single point]"}
{"compound": "O=S(=O)(c1cc(F)ccc1F)N1CCN(c2ccccn2)CC1", "Potency": "inconclusive: 15.8 µM [activator, partial curve]"}
{"compound": "CCOC(=O)c1ccc(NCCOC)c([N+](=O)[O-])c1", "Potency": "inconclusive: 11.2 µM [activator, single point]"}
{"compound": "O=C(COC(=O)c1ccc(F)cc1Cl)NC1CC1", "growth rescue (activation)": "inactive: 0.852%"}
{"compound": "COc1ccc(N2CCN(C(=O)COc3cccc4ccccc34)CC2)cc1", "Potency": "active: 12.6 µM"}
{"compound": "CCOC(=O)c1cc(-c2ccccc2)n(-c2cccc(C(=O)Nc3cccc(SC)c3)c2)c1C", "growth rescue (activation)": "inactive: -10.6%"}
{"compound": "COCCOC(=O)c1[nH]c2c(c1C)C(=O)CC(c1cccs1)C2", "note": "(configuration not stated)", "growth rescue (activation)": "inactive: 0.959%"}
{"compound": "CCn1c(-c2cccnc2Cl)nc2cc(Cl)c(Cl)cc21", "Potency": "inconclusive: 31.6 µM [activator, single point]"}
{"compound": "CNc1cncc(-c2ccc(F)c(F)c2)n1", "Potency": "inconclusive: 35.5 µM [activator, single point]"}
{"compound": "CCOC(=O)c1cc(C(=O)NCc2ccc(Cl)cc2Cl)nn1C", "Potency": "inconclusive: 17.8 µM [activator, single point]"}
{"compound": "O=S(=O)(c1ccccc1)[C@@]1(c2ccccc2)C[C@@H]2ON=C(c3cccc(Br)c3)[C@@H]2C1", "Potency": "inconclusive: 11.2 µM [activator, partial curve]"}
{"compound": "COc1ccc(OCc2nc(C#N)c(N3CCN(c4ccc(OC)cc4)CC3)o2)cc1", "Potency": "inconclusive: 3.98 µM [activator, full curve]"}
{"compound": "C=C(C)C(=O)Oc1ccc(N=Nc2ccc(C)cc2)ccc1=O", "Potency": "inconclusive: 12.6 µM [activator, partial curve]"}
{"compound": "CCc1ccccc1NC(=O)N1CCOc2ccccc21", "Potency": "inconclusive: 22.4 µM [activator, single point]"}
{"compound": "O=C(NCc1ccncc1)C(=O)NCC(c1ccco1)N1CCN(c2ccc(F)cc2)CC1", "note": "(configuration not stated)", "growth rescue (activation)": "inactive: -8.83%"}
{"compound": "CCC(C(=O)Nc1ccccc1)c1ccccc1", "note": "(configuration not stated)", "Potency": "inconclusive: 7.08 µM [activator, full curve, poor fit]"}
{"compound": "CCN(CC)C(=O)C1=C(C)N(Cc2ccc(C(C)(C)C)cc2)C(=O)C(CC(=O)NCCCCc2ccccc2)C1", "note": "(configuration not stated)", "Potency": "inconclusive: 1.12 µM [activator, full curve]"}
{"compound": "Cc1cccc(NC(=S)NCC(C)CSc2ccc(Cl)cc2)c1", "note": "(configuration not stated)", "Potency": "inconclusive: 12.6 µM [activator, partial curve]"}
{"compound": "O=S(=O)(NCCC(c1ccc(F)cc1)c1ccco1)c1ccccc1", "note": "(configuration not stated)", "Potency": "inconclusive: 14.1 µM [activator, single point]"}
{"compound": "Cc1ccc(Nc2ccc3cc(S(=O)(=O)N4CCC(C)CC4)ccc3n2)c(Cl)c1", "Potency": "inconclusive: 6.31 µM [activator, single point]"}
{"compound": "COCCN(C(=O)c1ccco1)c1nnc(-c2ccc(OC)cc2)s1", "Potency": "inconclusive: 14.1 µM [activator, partial curve]"}
{"compound": "CC(=O)c1ccc(NC(=S)Nc2cccc3cnccc23)cc1", "growth rescue (activation)": "inactive: -18.9%"}
{"compound": "COc1ccc(NC(=S)N(Cc2cccnc2)Cc2ccco2)cc1", "Potency": "inconclusive: 11.2 µM [activator, partial curve]"}
{"compound": "CCCOCc1ccc(O)c2ncccc12", "Potency": "inconclusive: 20 µM [activator, single point]"}
{"compound": "COc1ccc2c(c1OC)C(=O)OC2n1c(O)c(N=NC(C)=O)c2ccccc21", "note": "(configuration not stated)", "Potency": "inconclusive: 8.91 µM [activator, partial curve]"}
{"compound": "CC(=O)Nc1ccc(NC(=O)c2oc3c(c2C)-c2nn(Cc4ccccc4Cl)cc2CC3)cc1", "growth rescue (activation)": "inactive: 9.55%"}
{"compound": "CCc1ccc2nc(N(Cc3cccnc3)C(=O)c3ccc(C#N)cc3)sc2c1", "Potency": "active: 1.78 µM"}
{"compound": "Cc1ccc(N2CCN(C(=O)c3nn(C)c4c3CS(=O)(=O)c3ccccc3-4)CC2)c(C)c1", "Potency": "inactive and inconclusive: 25.1 µM [activator, single point]"}
{"compound": "CCNC(=S)NNC(=O)c1cc(-c2cccc(OCC)c2)nc2ccccc12", "growth rescue (activation)": "inactive: -9.96%"}
{"compound": "ClC1(Cl)CC1CSc1nnc(-c2ccncc2)o1", "note": "(configuration not stated)", "Potency": "inconclusive: 15.8 µM [activator, single point]"}
{"compound": "O=C(Nc1ccc(F)cc1F)C1CCN(c2ncccn2)CC1", "Potency": "inconclusive: 39.8 µM [activator, partial curve, poor fit]"}
{"compound": "COCCSc1nnc(NC(=O)c2ccco2)s1", "Potency": "inconclusive: 35.5 µM [activator, single point]"}
{"compound": "COC(=O)Cn1c(C2CC(=O)N(c3c(C)cccc3C)C2)nc2ccccc21", "note": "(configuration not stated)", "growth rescue (activation)": "inactive: 20%"}
{"compound": "Cn1ccc2c(-c3ccc4c(c3)OCCO4)cc3c(c21)C1CCC3C1", "note": "(configuration not stated)", "Potency": "inconclusive: 28.2 µM [activator, partial curve]"}
{"compound": "CCOc1ccc(-c2nc(N)ncc2-c2ccc(Cl)cc2)c(O)c1", "Potency": "active: 22.4 µM"}
{"compound": "COc1cccc(-c2nnc(SCc3ccc(C#N)cc3)n2Cc2ccco2)c1", "Potency": "inconclusive: 12.6 µM [activator, partial curve]"}
{"compound": "Cc1cc(NC(=O)/C=C/c2ccc(Br)cc2)no1", "Potency": "inconclusive: 0.316 µM [activator, full curve, poor fit]"}
{"compound": "O=C1c2ccccc2C(=O)N1CCc1csc(-c2ccccc2)n1", "Potency": "active: 12.6 µM"}
{"compound": "Cc1onc(-c2ccccc2Cl)c1C(=O)NCC1CCCO1", "note": "(configuration not stated)", "growth rescue (activation)": "inactive: -12.8%"}
{"compound": "Cc1cc(C)cc(C(=O)Nc2cccc(NC(=O)c3ccco3)c2)c1", "Potency": "inconclusive: 14.1 µM [activator, single point]"}
{"compound": "COc1ccc(-c2csc(Nc3ncccc3C)n2)cc1OC", "Potency": "active: 14.1 µM"}
{"compound": "CCN(CC)c1ncnc2c1cnn2-c1cc(Cl)ccc1C", "Potency": "inconclusive: 6.31 µM [activator, partial curve, poor fit]"}
{"compound": "Clc1nc(-c2ccccc2)cc(-c2ccccc2)n1", "Potency": "inconclusive: 4.47 µM [activator, full curve]"}
{"compound": "Cn1c(=O)c2nc(SCC(=O)Nc3ccc(OC(F)(F)F)cc3)n(C)c2n(C)c1=O", "Potency": "inconclusive: 35.5 µM [activator, partial curve, poor fit]"}
{"compound": "COc1ccc(CC(=O)Nc2c(C(=O)N3CCN(c4ccccc4)CC3)oc3ccccc23)cc1OC", "Potency": "inconclusive: 25.1 µM [activator, single point] and inconclusive: 12.6 µM [activator, single point]"}
{"compound": "CC1CCCC(C)N1C(=O)c1ccccc1Nc1ccc(SC(F)F)cc1", "note": "(configuration not stated)", "Potency": "inconclusive: 22.4 µM [activator, single point]"}
{"compound": "O=C1c2ccccc2C(=O)N1CCCc1c[nH]c2ccccc12", "Potency": "inconclusive: 15.8 µM [activator, single point]"}
